# Measured values as given in PubChem BioAssay AID1346428 (National Center for Advancing Translational Sciences (NCATS), 2018).
# Several values for one entry are separate records, joined by “and”; a condition that tells them apart may be missing. Equal entries are not always repeated. Screen size: about 48,000 compounds; about 1,200 (2.5%) were called active. Not shown: some 2% with an inconclusive outcome.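 The calls were made as follows: active = activation of at least 60% and not above a set upper limit (about 1 call in 100 departs from these limits); inconclusive = activation of 40% to 60%, or above that upper limit; inactive = activation under 40%.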 The list shows a part of the results.
# Target: Probable G-protein coupled receptor 32 (Homo sapiens) (UniProt O75388)
# Sequence of UniProt O75388 (O75388 whole entry, looked up): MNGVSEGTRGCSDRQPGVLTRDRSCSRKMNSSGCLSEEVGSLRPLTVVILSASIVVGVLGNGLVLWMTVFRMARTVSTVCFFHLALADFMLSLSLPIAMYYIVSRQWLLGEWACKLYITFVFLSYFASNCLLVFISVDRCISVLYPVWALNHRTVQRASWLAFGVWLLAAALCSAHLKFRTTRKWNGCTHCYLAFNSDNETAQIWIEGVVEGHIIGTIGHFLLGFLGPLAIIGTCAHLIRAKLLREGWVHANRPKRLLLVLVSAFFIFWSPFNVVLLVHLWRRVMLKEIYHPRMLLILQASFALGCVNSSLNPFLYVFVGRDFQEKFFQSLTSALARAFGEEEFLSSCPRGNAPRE
# Test: qHTS for Agonists of Human Resolvin D1 Receptor DRV1; also: 0% is about no effect
# Conditions: CHO-K1 GPR32 beta-arrestin PathHunter luminescence, 90 min; at 76.9 µM; stronger effect = higher value; zero percent set by DMSO-only wells
# Procedure, shortened: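 Agonism was scored by beta-Gal fragment complementation (chemiluminescent read, 1 h detection at ambient temperature) reporting beta-arrestin binding to GPR32 in engineered CHO-K1 cells. Compound treatment lasted 90 min at 37 C, normalized to a DMSO basal control.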
row,SMILES,activation
1,CN(c1ccccc1)S(=O)(=O)c1nnc(NC(=O)C2CCCCC2)s1,inactive: -6.58%
2,Cc1c(Cl)cccc1NC(=O)CCS(=O)(=O)c1ccc2c(c1)oc(=O)n2C,inactive: -0.0157%
3,COc1cccc(C(=O)N(Cc2cccnc2)c2nc3c(OC)ccc(C)c3s2)c1OC,inactive: 2.28%
4,CCOC(=O)c1c(C)c(C(=O)NCc2ccc(OC)cc2)c(C)n1CC,inactive: -0.416%
5,COc1ccc(NCc2cc3cc4c(cc3n(CC(=O)Nc3ccc(F)cc3)c2=O)OCCO4)cc1,inactive: -52.3%
6,O=C(CSc1nc2ccccc2nc1Cc1ccc(Cl)cc1)N1CCCc2ccccc21,inactive: -4.73%
7,COC(=O)C(C)Sc1nc2c(cnn2-c2ccc(F)cc2)c(=O)[nH]1 (centres undefined),inactive: 11.7%
8,CCOc1cc(C2CC(=O)Nc3cc4c(cc32)OCCO4)ccc1O (centres undefined),inactive: -24.9%
9,CCOc1ccccc1NS(=O)(=O)c1ccc2c(c1)CC(C)N2C(=O)C1CCC1 (centres undefined),inactive: 3.13%
10,CCOc1ccc(NC(=O)c2cnn(-c3ccc(C)c(C)c3)c2C2CCN(C(=O)OC(C)(C)C)CC2)cc1,inactive: -20.8%
11,COc1ccccc1N1CCN(C(=O)c2cn(C)c3ccc(S(=O)(=O)N(C)C4CCCCC4)cc3c2=O)CC1,inactive: -2.89%
12,CCc1ccc(OCC(=O)N(Cc2ccco2)Cc2ccccc2Cl)cc1,inactive: -14.1%
13,CCOc1ccc(Nc2nc3c(S(=O)(=O)c4cccc(Cl)c4)nnn3c3ccsc23)cc1,inactive: -20.2%
14,CC1=C(C(=O)Nc2ccccc2)C(c2ccc(C(=O)O)cc2)n2ncnc2N1 (centres undefined),inactive: -3.09%
15,CCOC(=O)c1cnc2c(ccc3ccccc32)c1Nc1cccc(C(F)(F)F)c1,inactive: -13.8%
16,Cc1ccc(NC(=O)CCCn2c(=O)c3cccn3c3ccccc32)c(C)c1,inactive: -25.5%
17,CCc1noc(-c2ccc(NCc3ccccc3)c([N+](=O)[O-])c2)n1,inactive: 7.73%
18,Cc1ccc(C(=O)NCC(c2ccc3c(c2)OCO3)N2CCN(C)CC2)cc1C (centres undefined),inactive: -0.559%
19,COc1ccc(Cn2c(C(=O)O)c(CNCCc3ccco3)c3ccc(C)cc32)cc1,active: 104%
20,COc1ccc(F)cc1S(=O)(=O)NCC(c1ccco1)S(=O)(=O)c1ccc(F)cc1 (centres undefined),inactive: -14.8%
21,CCOc1cc(C(=O)NCCc2csc3nc(-c4ccccc4F)nn23)cc(OCC)c1OCC,inactive: 3.02%

row,SMILES,activation
1,N=c1c(C(=O)NCC2CCCO2)cc2c(=O)n3ccccc3nc2n1CCCO (centres undefined),inactive: 12.2%
2,Cc1nn(CCCC(=O)NCCc2ccc(Cl)cc2)c(=O)c2c1sc1ccccc12,inactive: -19.3%
3,Cc1ccccc1OCC(=O)Nc1ccccc1C(=O)OCc1cc(=O)n2ccsc2n1,inactive: 0.573%
4,Cc1cc(C(F)F)n2nc(C(=O)Nc3cccc(Cl)c3C)nc2n1,inactive: -4.15%
5,O=C(Nc1ccc(-n2nncc2-c2ccccc2)cc1)c1cccc(F)c1,inactive: -25.1%
6,COc1ccc2c(c1)c1c(c(=O)n(-c3ccccc3)c(=O)n1CC(=O)NCCC1=CCCCC1)n2C,inactive: -24.9%
7,Cn1ncc2c(NCc3ccccc3Cl)nc(NCCO)nc21,inactive: 22.9%
8,O=C(CN1C(=O)CCn2nc(-c3ccccc3)cc21)NCc1ccc(F)cc1,inactive: -5.44%
9,CCOc1ccc(CNC(=O)C2CCN(S(=O)(=O)c3cn(C)cn3)CC2)cc1,inactive: -11.6%
10,Cc1cc(C)c(/C=C/c2onc(C)c2S(=O)(=O)N2CCC(C(=O)N(C)Cc3ccccc3)CC2)c(C)c1,inactive: -21.9%
11,Cc1ccc(NC(=O)Nc2nnc(N(C)C3CCCCC3)s2)c(Cl)c1,inactive: -18.9%
12,CC(=O)NC(Cc1ccccc1)C(=O)O (centres undefined),inactive: 5.32%
13,Cc1ccc(-n2c(=O)c3c4c(sc3n(Cc3ccccc3C)c2=O)CCC4)cc1C,inactive: -8.3%
14,Cc1ccccc1C(=O)Nc1nc2nc(-c3ccccc3)cc(=O)n2[nH]1,inactive: 11.4%
15,O=C(Nc1ccc2c(c1)OCO2)c1cc(-c2ccc(Br)cc2)on1,inactive: 9.84%
16,COc1ccc(O)cc1,inactive: 7.95%
17,NCCc1cnc[nH]1,inactive: 2.69% and inactive: 3.14%
18,CCN1C(C(=O)c2ccccc2)=C(OC(=O)c2ccc(OC)cc2)c2ccccc2S1(=O)=O,inactive: -33.8%
19,Cc1ccc(NC(=O)c2oc3ccc(S(=O)(=O)N4CCCCC4)cc3c2C)cc1Cl,inactive: 0.827%
20,CCN(Cc1ccccc1)C(=O)CCc1c(C)nc2c(c(C)nn2-c2ccc(C)c(C)c2)c1C,inactive: -3.68%
21,Cn1c(=O)c2c(-c3ccc(Br)cc3)n(CCc3ccccc3)cc2n(C)c1=O,inactive: -20.7%

row,SMILES,activation
1,CCc1cccc(C)c1NC(=O)Cn1cc2c(n1)CCCC2,inactive: 12.5%
2,COc1cccc(C(=O)NCc2cn3ccccc3n2)c1,inactive: -2.27%
3,NCCCC(=O)O,inactive: 1.54%
4,Cc1ccc2c(=O)cc(C(=O)Nc3ccc(S(=O)(=O)N(C)Cc4ccccc4)cc3)oc2c1C,inactive: 7.68%
5,CN(N=O)C(=O)N[C@@H]1[C@@H](O)[C@H](O)[C@@H](CO)O[C@@H]1O,inactive: 16.2%
6,O=C(NCCCO)C(=O)NCC(c1ccc2c(c1)OCO2)N1CCOCC1 (centres undefined),inactive: 0.593%
7,CCOc1ccc(C(=O)c2cn(CC(=O)Nc3ccc(F)cc3)c3cc4c(cc3c2=O)OCCO4)cc1,inactive: -2.87%
8,O=C(CSc1nnc(-c2ccccc2)c(-c2ccccc2)n1)NC1CCCC1,inactive: -11.2%
9,CCOc1ccc(OCC)c(NS(=O)(=O)c2c(C(=O)N3CCCCCC3)c(C)n(C)c2C)c1,inactive: -18.7%
10,COc1ccc(C2c3c(oc4ccc(C)cc4c3=O)C(=O)N2CCCN2CCOCC2)cc1OC (centres undefined),inactive: -12.2%
11,CCOC(=O)C1CCCN(S(=O)(=O)c2cc3c4c(c2)CC(=O)N4CCC3)C1 (centres undefined),inactive: -33.2%
12,CCc1ccc(NC(=O)Cn2c(=O)n(CCCCC(=O)NCCc3ccccc3)c(=O)c3ccccc32)cc1,inactive: -1.87%
13,COc1ccc(C)cc1NC(=O)C1COc2ccccc2C1 (centres undefined),inactive: -15.1%
14,Fc1ccc(-n2cc(-c3ccccc3)c3c(NCCc4ccccc4)ncnc32)cc1,inactive: -44.6%
15,COc1ccc(NC(=O)C2=CC(c3ccc4c(c3)OCO4)=NS(=O)(=O)N2C)cc1,inactive: -27.2%
16,CCC(C)(C)NC(=O)C1CCN(S(=O)(=O)c2c(C)noc2/C=C/c2ccc(C)cc2)CC1,inactive: -2.97%
17,COc1cccc(CNC(=O)c2oc3c(c2C)-c2nn(Cc4cccc(Cl)c4)cc2CC3)c1,inactive: 3.06%
18,COc1ccc(-c2noc(CC(=O)Nc3ccc(Br)cc3C)n2)cc1,inactive: -5.31%
19,CCOC(=O)c1c(NC(=O)COc2c(C)cc(Cl)cc2Cl)sc2c1CCCC2,inactive: -10.4%
20,COc1ccc(S(=O)(=O)NCC(c2ccc(N(C)C)cc2)N2CCCC2)cc1 (centres undefined),inactive: -13.1%
21,CCCCCCOC(=O)NC(=N)c1ccc(NCc2nc3cc(C(=O)N(CCC(=O)OCC)c4ccccn4)ccc3n2C)cc1,inactive: -19.5%

row,SMILES,activation
1,Cc1ccc(S(=O)(=O)c2nc(-c3cccc(Cl)c3)oc2NCc2ccccc2)cc1,inactive: -0.112%
2,Cc1cc(C)c(NC(=O)Cn2c(=O)n(Cc3ccc(C(=O)NCc4ccco4)cc3)c(=O)c3sccc32)c(C)c1,inactive: -12.6%
3,Cc1ccn2cc(-c3ccc(C)c(NS(=O)(=O)c4ccc(Cl)cc4)c3)nc2c1,inactive: 0.181%
4,Cc1nnc(N2CCCC(C(=O)NCCc3ccccc3)C2)c2nn(-c3ccccc3)c(C)c12 (centres undefined),inactive: -21.4%
5,CCOC(=O)Cn1c(=O)oc2cc(S(=O)(=O)N3CCN(c4cc(C)ccc4C)CC3)ccc21,inactive: -14.3%
6,COC(=O)c1cc2oc3ccccc3c2n1CC(=O)Nc1ccc(C)cc1C,inactive: 3.43%
7,COCCCNC(=O)c1ccc2nc(CCc3ccccc3)oc2c1,inactive: -17.9%
8,CCOC(=O)c1c(NC(=O)c2ccc(C)c(C)c2)sc2c1CCCCC2,inactive: -21.6%
9,Cn1cnc(S(=O)(=O)N2CCCC(C(=O)Nc3ccc(OC(F)(F)F)cc3)C2)c1 (centres undefined),inactive: -5.27%
10,CCc1ccc(C(=O)NC2=NC(c3ccccc3F)CC(=O)N2)cc1 (centres undefined),inactive: -7.1%
11,CCC(=O)N1CCc2cc(S(=O)(=O)NC(C(=O)Nc3cc(OC)cc(OC)c3)C(C)C)ccc21 (centres undefined),inactive: -0.839%
12,CN[C@@H]1[C@H](O)[C@H](NC)[C@H]2O[C@@]3(O)C(=O)C[C@@H](C)O[C@H]3O[C@@H]2[C@H]1O,inactive: -28.9%
13,CCCN1CCN(CCCNC(=O)c2c(C)nn(-c3ccc(F)cc3)c2-n2cccc2)CC1,inactive: 2.6%
14,CCOc1ccc(CNC(=O)Cn2c(=O)c3cccn3c3ccccc32)cc1,inactive: -7.7%
15,Cc1c(Cl)ccc2sc(N3CCN(C(=O)CS(=O)(=O)c4ccccc4)CC3)nc12,inactive: 47.2%
16,CCOc1ccc(OCC)c(NS(=O)(=O)c2ccc3c(c2)CCN3C(=O)C2CCC2)c1,inactive: -12.2%
17,O=C(Cc1c(C(=O)O)[nH]c2ccccc12)Nc1cccc(C(F)(F)F)c1,inactive: 44%
18,Cc1ccc(OCC(=O)Nc2ccc(-c3nc4ccccc4o3)cc2)c(C)c1,inactive: -4.36%
19,O=C(Nc1ccccc1Br)N1CCC(CN2CCCC2)CC1,inactive: -5.74%
20,COc1ccc(CN2CCCN(CC(=O)Nc3ccc4c(c3)OCCO4)S2(=O)=O)cc1,inactive: -3.9%
21,COc1ccccc1CNC(=O)CCCn1c(=O)c2ccccc2n(Cc2ccc(C)cc2)c1=O,inactive: 3.09%
